The values that follow come from PMC4336329 (PLoS ONE, 2015).

Structures are written as SMILES. Among all 310,000 compounds or so, about 2,200 (0.71%) showed an effect of 50% or more. The effect is printed as a negative number. The list shows a part of the results.

This experiment deals with human ether-à-go-go-related gene (hERG) potassium channel (human, UniProt Q12809). Kind of experiment: primary screen, population patch clamp on CHO cells stably expressing hERG.
human ether-à-go-go-related gene (hERG) potassium channel, sequence (Q12809 whole entry, looked up): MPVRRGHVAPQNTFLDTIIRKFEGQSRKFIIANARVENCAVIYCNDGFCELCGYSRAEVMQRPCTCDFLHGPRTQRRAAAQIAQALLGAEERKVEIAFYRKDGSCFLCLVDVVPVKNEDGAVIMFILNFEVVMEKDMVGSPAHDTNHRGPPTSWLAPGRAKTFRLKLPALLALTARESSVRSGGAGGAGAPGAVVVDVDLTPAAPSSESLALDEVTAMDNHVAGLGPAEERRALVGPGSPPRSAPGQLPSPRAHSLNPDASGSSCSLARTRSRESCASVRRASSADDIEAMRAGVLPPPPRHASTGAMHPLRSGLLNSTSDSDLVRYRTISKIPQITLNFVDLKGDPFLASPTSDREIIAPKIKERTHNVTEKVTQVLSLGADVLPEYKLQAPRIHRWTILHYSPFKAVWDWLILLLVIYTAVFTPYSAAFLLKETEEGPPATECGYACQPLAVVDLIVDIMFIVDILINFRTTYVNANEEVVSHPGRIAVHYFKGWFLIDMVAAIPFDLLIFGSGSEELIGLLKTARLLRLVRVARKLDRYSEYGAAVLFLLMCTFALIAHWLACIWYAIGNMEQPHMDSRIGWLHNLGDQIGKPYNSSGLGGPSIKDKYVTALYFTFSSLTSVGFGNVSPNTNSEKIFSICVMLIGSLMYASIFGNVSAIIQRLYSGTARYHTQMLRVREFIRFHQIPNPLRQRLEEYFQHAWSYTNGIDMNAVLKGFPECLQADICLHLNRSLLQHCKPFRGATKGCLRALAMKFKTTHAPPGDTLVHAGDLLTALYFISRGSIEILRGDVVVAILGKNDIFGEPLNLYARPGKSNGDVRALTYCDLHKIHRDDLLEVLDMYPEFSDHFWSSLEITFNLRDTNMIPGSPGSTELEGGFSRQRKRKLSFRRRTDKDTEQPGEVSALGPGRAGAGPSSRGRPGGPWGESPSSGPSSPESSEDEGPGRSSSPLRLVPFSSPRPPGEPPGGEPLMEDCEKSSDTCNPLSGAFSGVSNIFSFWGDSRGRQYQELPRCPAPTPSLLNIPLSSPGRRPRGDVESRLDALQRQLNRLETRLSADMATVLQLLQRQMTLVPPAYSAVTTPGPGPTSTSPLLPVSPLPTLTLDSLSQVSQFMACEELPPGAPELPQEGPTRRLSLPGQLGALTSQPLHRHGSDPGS
For the compound `C=CCOC(=O)/C(=C\C=C\c1ccccc1)NC(=O)c1ccccc1`, the “hERG current change (%, negative = inhibition) at 1uM” value worked out at 1.06%.

Turning to `CCOc1ccc(NS(=O)(=O)c2ccc(C(=O)NCC3(N(C)C)CCCCC3)cc2)cc1`, the “hERG current change (%, negative = inhibition) at 1uM” value is 6.85%. With `CCNc1cc(S(=O)(=O)C(F)(F)F)ccc1N`, the “hERG current change (%, negative = inhibition) at 1uM” value amounted to 9.29%. As for `CSc1nsc(SCC(=O)Nc2ccccn2)n1`, the “hERG current change (%, negative = inhibition) at 1uM” value was found to be 6.06%. To `CCc1c(-c2ccccc2)[n+](=O)c2c(n1[O-])CCC2` belongs 15.4%. In the case of `CCCc1nc(NCc2ccncc2)c2nnn(Cc3ccccc3F)c2n1`, the “hERG current change (%, negative = inhibition) at 1uM” value is listed as 12.2%. For the compound `CCOC(=O)c1ccc2c(c1)NCc1cccc(OC)c1O2`, the “hERG current change (%, negative = inhibition) at 1uM” value turned out to be 9.49%. `CC(=O)c1ccc(OCCOc2ccc(Cl)c3cccnc23)cc1`: the “hERG current change (%, negative = inhibition) at 1uM” value is listed as 12.4%. For `CC(=O)n1ccnc1`, the “hERG current change (%, negative = inhibition) at 1uM” value was 13.9%.

Consider `O=C(CCN1C(=O)COc2ccccc21)N1CCN(c2ccccn2)CC1`, for which the “hERG current change (%, negative = inhibition) at 1uM” value is given as -10.1%. Take `CCn1c(C)nc([N+](=O)[O-])c1Sc1ccc(F)cc1`: the “hERG current change (%, negative = inhibition) at 1uM” value is listed as 15.9%. Take `CC1(C)Cc2nc(N)c(=O)sc2C1`: the “hERG current change (%, negative = inhibition) at 1uM” value is 17.1%.

As for `CCOC(=O)C1C(c2cc(OC)c(OC)c(OC)c2)NC(=S)NC1(O)C(F)(F)F` (stereo not drawn), the “hERG current change (%, negative = inhibition) at 1uM” value is recorded as 8.12%. As for `CC1CCN(C(=S)c2cn(Cc3ccccc3F)c3ccccc23)CC1`, the “hERG current change (%, negative = inhibition) at 1uM” value came to 15.8%.

`CC(=O)c1cc(-c2ccccc2)n(CC(=O)Nc2ccc(C)c(C)c2)c1C`: the “hERG current change (%, negative = inhibition) at 1uM” value came out at 18%. With `CC(=O)c1cnc(-c2cccc(Cl)c2)s1`, the “hERG current change (%, negative = inhibition) at 1uM” value came out at 9.4%.

`CCOC(=O)C1=C(N)Oc2c(oc(CO)cc2=O)C1c1ccc(F)cc1` (stereo not drawn): the “hERG current change (%, negative = inhibition) at 1uM” value turned out to be 4.19%. Consider `CC(C)C(c1nnnn1Cc1ccccc1)N1CCN(Cc2ccco2)CC1.Cl` (stereo not drawn), for which the “hERG current change (%, negative = inhibition) at 1uM” value is on record as -3.3%. To `CCOc1ccc(NC(=O)CSc2nc(C)cc(C)n2)cc1` belongs 11.5%. Turning to `Cc1c(/N=C/c2ccco2)n(Cc2ccccc2)c2ccccc12`, the “hERG current change (%, negative = inhibition) at 1uM” value is 7.22%. As for `CCC(C)N1CC(=O)N2Cc3[nH]c4ccccc4c3C[C@H]2C1=O` (stereo partly drawn), the “hERG current change (%, negative = inhibition) at 1uM” value is 17%. As for `Cc1cc(C)c(-c2csc(NC(=O)C3=NN(c4ccccc4)C(=O)CC3)n2)c(C)c1`, the “hERG current change (%, negative = inhibition) at 1uM” value amounted to 2.34%. Turning to `CC(C)(C)NC(=O)c1cccc2c1-c1ccccc1C2=O`, the “hERG current change (%, negative = inhibition) at 1uM” value was 12.2%.

For `CCOC(=O)CSc1nnc2n1C(C)(C)Cc1ccccc1-2`, the “hERG current change (%, negative = inhibition) at 1uM” value is recorded as 4.58%. To `Cc1ccc2nc3c(cc(C(=O)NCc4ccco4)c(=N)n3C3CCCC3)c(=O)n2c1` belongs -83.2%; to `O=C(NCCN1CCOCC1)c1ccc2c(c1)N(Cc1ccc(Cl)cc1)C(=O)CS2`, 2.58%; to `CC(C)Cc1nc2sc3c(NCc4ccco4)ncnc3c2c2c1COC(C)(C)C2`, -4.3%.

Turning to `CN1C(=O)[C@@H]2C[C@@]3([C@@]45C[C@H]6C(=O)N(C)[C@@H](Cc7ccccc7)C(=O)N6[C@@H]4Nc4ccccc45)c4ccccc4N[C@H]3N2C(=O)[C@@H]1Cc1ccccc1`, the “hERG current change (%, negative = inhibition) at 1uM” value was determined as 5.93%. To `CN1C(=O)c2ccc(S(=O)(=O)c3ccc(C(=O)O)cc3)cc2C1=O` belongs 6.2%; to `CC1CCCCN1S(=O)(=O)c1ccc(C(=O)Nc2ccccc2-c2nc3ccccc3[nH]2)cc1` (stereo not drawn), 16.6%. To `CC(NC(=O)CSc1nc2sc3c(c2c(=O)n1-c1ccccc1)CCCC3)c1ccccc1` (stereo not drawn) belongs 11.7%; to `CN(C)c1ccc(/C=C/C=N/Nc2nc(N3CCOCC3)nc(N3CCOCC3)n2)cc1`, 11.9%; to `O=C(Nc1ccccc1)C1=C[C@H](C2CCCCC2)C[C@H](OCCCCO)O1`, 9.32%. Take `CCOC(=O)N1CCC(=NNc2ncc(C(F)(F)F)cc2Cl)CC1`: the “hERG current change (%, negative = inhibition) at 1uM” value is 6.98%.

In the case of `c1ccc(NCc2cccnc2)cc1`, the “hERG current change (%, negative = inhibition) at 1uM” value is 12.2%. Regarding `CC1(C)Cc2c(sc3c2c(=O)n(-c2ccc(Cl)cc2)c(=O)n3CC(N)=O)CO1`, the “hERG current change (%, negative = inhibition) at 1uM” value is 10.8%. To `CCOc1ccc(NC(=O)C(=O)N/N=C/c2cccnc2)cc1` belongs 7%; to `Cn1cc(C(=O)N/N=C/C(Br)=C/c2ccccc2)ccc1=O`, 1.68%; to `COCC(C)NCc1cccc2ccccc12.O=C(O)C(=O)O` (stereo not drawn), 11.3%. With `CC1CN(C(=O)Cn2c(C(F)(F)F)nc3ccccc32)CC(C)O1` (stereo not drawn), the “hERG current change (%, negative = inhibition) at 1uM” value is 16.1%. To `Cc1nn(-c2ccccc2)c(C)c1C(=O)OC(C)C(=O)NC1CCCCC1C` (stereo not drawn) belongs 2.39%. To `Cc1cc(SCc2ccc([N+](=O)[O-])cc2)nc(=O)[nH]1` belongs 7.95%; to `COc1cccc(OCCNC(=O)c2cccc(OC)c2)c1`, 4.68%; to `CCOc1ccccc1OCCCC(=O)N1CCN(S(=O)(=O)c2ccc(C)cc2)CC1`, 2.61%.

For `CCN1C(=O)[C@H]2[C@@H](c3ccc(OC)cc3)N3C(=O)CN(Cc4ccccc4)C(=O)[C@@]3(Cc3ccccc3)[C@H]2C1=O`, the “hERG current change (%, negative = inhibition) at 1uM” value is 9.26%. Take `CC(=O)c1ccc(N2C(=O)C3C4C=CC(CC4)C3C2=O)cc1` (stereo not drawn): the “hERG current change (%, negative = inhibition) at 1uM” value came out at 11.2%.

As for `COc1cc(/C=N/NC(=O)c2ccc(O)cc2)ccc1OCC(=O)N1CC(C)OC(C)C1` (stereo not drawn), the “hERG current change (%, negative = inhibition) at 1uM” value worked out at 13%.

Regarding `O=C(Nc1cccc(NC(=O)c2ccco2)n1)c1ccco1`, the “hERG current change (%, negative = inhibition) at 1uM” value is -5.95%. To `CN(C)c1ccc(S(=O)(=O)NCC(=O)NCCOc2ccccc2F)cc1[N+](=O)[O-]` belongs 13.8%; to `Cc1ccc(CNC(=O)c2ccc(S(=O)(=O)N(C)C)cc2)n1C`, 18.4%; to `O=C(NCCc1ccccc1)c1cccc(N2C(=O)C3CC=CCC3C2=O)c1` (stereo not drawn), 3.51%. Turning to `CCC(c1nnc(SCC(=O)NCCc2ccc(OC)c(OC)c2)n1Cc1ccccc1)N(C)C` (stereo not drawn), the “hERG current change (%, negative = inhibition) at 1uM” value amounted to 18.1%. To `CCOC(=O)N1CCN(C(=O)C(C)N(c2ccc(Oc3ccccc3)cc2)S(C)(=O)=O)CC1` (stereo not drawn) belongs -11.3%; to `CCCNC(=O)c1c(C)cc(=O)oc1C`, -4.47%. As for `CC(C)(C)CC(=O)Nc1cc2c3c(c1)CCC(=O)N3CCC2`, the “hERG current change (%, negative = inhibition) at 1uM” value is 10.2%.

For `C=CCN1C(=O)C(O)=C(C(C)=O)C1c1ccccc1F` (stereo not drawn), the “hERG current change (%, negative = inhibition) at 1uM” value is recorded as 6.75%. To `CCOC(=O)c1[nH]c2ccc(OC)cc2c1NC(=O)CCN1CCCC(C)C1` (stereo not drawn) belongs -3.69%; to `CCOC(=O)C1=C(C)NC(=S)NC1c1ccc(OCC(=O)N2CCCCCC2)cc1` (stereo not drawn), 4.07%. To `CC(=O)Oc1ccc(/C=C2\N=C(C3CCCCC3)OC2=O)cc1` belongs 13.3%; to `CCOC(=O)C1=NNC2(CC(=O)N(c3cc(C)cc(C)c3)C2=O)C1` (stereo not drawn), 23.8%. `CCCNC(=O)c1nc(C)n(-c2ccc([N+](=O)[O-])cc2)n1`: the “hERG current change (%, negative = inhibition) at 1uM” value is recorded as -3.29%. In the case of `COc1ccc(N=Cc2c(O)n(C)c(=O)[nH]c2=O)cc1`, the “hERG current change (%, negative = inhibition) at 1uM” value is 16.7%. On to `COc1ccc(N2CC(C(=O)NCCS(=O)(=O)N3CCN(c4ccccc4)CC3)CC2=O)cc1` (stereo not drawn), for which the “hERG current change (%, negative = inhibition) at 1uM” value turned out to be 13.8%. For `Cc1nc2cc(-c3ccccc3)nn2c(C)c1CCC(=O)N1CCN(c2ccccc2)CC1`, the “hERG current change (%, negative = inhibition) at 1uM” value is -14.6%.

Take `O=C(NNS(=O)(=O)c1ccc(Cl)cc1)c1ccc(S(=O)(=O)N2CCCCC2)cc1`: the “hERG current change (%, negative = inhibition) at 1uM” value was determined as 0.353%. For the compound `O=Cc1ccc(N2CCCC2)o1`, the “hERG current change (%, negative = inhibition) at 1uM” value amounted to 11.1%. As for `COc1cccc(NC(=O)Cn2cnc3sc(C)c(S(=O)(=O)N4CCCCC4)c3c2=O)c1`, the “hERG current change (%, negative = inhibition) at 1uM” value stood at 9.61%.

As to `C[N+]12CCC(CC1)C(C#N)(N1CCOCC1)C2.[I-]` (stereo not drawn), the “hERG current change (%, negative = inhibition) at 1uM” value was 11.8%.

In the case of `COc1ccccc1CNC(=O)COC(=O)/C=C/c1cccs1`, the “hERG current change (%, negative = inhibition) at 1uM” value was 16.2%. Take `CC1=NN(C(=O)Cc2ccccc2)C(O)(c2cccnc2)C1` (stereo not drawn): the “hERG current change (%, negative = inhibition) at 1uM” value was -6.16%. `O=C(Cc1ccc(Br)cc1)Nc1nc2ccccc2[nH]1`: the “hERG current change (%, negative = inhibition) at 1uM” value turned out to be 15.2%. Take `CCc1ccc2oc(-c3cccc(NC(=O)c4cccnc4)c3)nc2c1`: the “hERG current change (%, negative = inhibition) at 1uM” value is recorded as -0.871%.

For the compound `CC(C)(C)NC(=O)N1CCCC(C(=O)c2cccc(Cl)c2)C1` (stereo not drawn), the “hERG current change (%, negative = inhibition) at 1uM” value is recorded as 13.5%. `CCCCCSc1nnc2c(n1)OC(c1cccn1C)N(C(C)=O)c1ccccc1-2` (stereo not drawn): the “hERG current change (%, negative = inhibition) at 1uM” value was 8.98%.

For `NS(=O)(=O)c1ccc(NC(=O)c2cc(-c3cccs3)nc3ccccc23)cc1`, the “hERG current change (%, negative = inhibition) at 1uM” value is recorded as 1.54%.

As to `Cc1nn(Cc2ccccc2)c(Cl)c1C(=O)OC(C)C#N` (stereo not drawn), the “hERG current change (%, negative = inhibition) at 1uM” value is 10.3%.

As for `O=C(NCCc1ccco1)C(=O)NCC1OCCCN1S(=O)(=O)c1ccc(F)cc1` (stereo not drawn), the “hERG current change (%, negative = inhibition) at 1uM” value was determined as 6.84%. For `CCOc1cc(/C=N/NC(=O)C(C)Sc2ccccn2)ccc1O` (stereo not drawn), the “hERG current change (%, negative = inhibition) at 1uM” value stood at 3.55%. For `COc1cc(-c2nnc(CSc3nnc(Nc4ccc(Oc5ccccc5)cc4)s3)o2)cc(OC)c1OC`, the “hERG current change (%, negative = inhibition) at 1uM” value is reported as -3.05%. As to `CC(=O)Nc1c(F)cc(Br)cc1F`, the “hERG current change (%, negative = inhibition) at 1uM” value was determined as 16.9%.

On to `Cc1noc(C)c1CSCC(=O)N(CC(C)C)c1c(N)n(Cc2ccccc2)c(=O)[nH]c1=O`, for which the “hERG current change (%, negative = inhibition) at 1uM” value was found to be 2.14%. For the compound `Cn1nnc2c(sc3nc(N4CCOCC4)c4c(c32)CCCC4)c1=O`, the “hERG current change (%, negative = inhibition) at 1uM” value is listed as -2.97%.

For `Cc1ccc(SCCC(=O)OC(C)C(=O)Nc2ccccc2)cc1` (stereo not drawn), the “hERG current change (%, negative = inhibition) at 1uM” value is listed as 5.51%. On to `Cn1c(O)c(C(c2ccccn2)c2c(O)n(C)c(=S)[nH]c2=O)c(=O)[nH]c1=S`, for which the “hERG current change (%, negative = inhibition) at 1uM” value was 3.85%. With `CC(C)C[C@H](N)c1nnc(SCC(=O)Nc2ccc(Br)cc2)o1`, the “hERG current change (%, negative = inhibition) at 1uM” value was 8.89%. Regarding `N#Cc1cccnc1N1CCN(C(=O)c2ccc3c(c2)S(=O)(=O)c2ccccc2C3=O)CC1`, the “hERG current change (%, negative = inhibition) at 1uM” value is -5.57%. As for `O=C1c2ccccc2NC(c2cccc([N+](=O)[O-])c2)N1O` (stereo not drawn), the “hERG current change (%, negative = inhibition) at 1uM” value is reported as 9.58%.
